Some of the results follow. The list includes weakly bound sequences.
The sequences below were run against MaxL homodimer (UniProt P61244) (assay: universal protein-binding microarray (PBM)). Conditions: PBS-based mixture, 10 nM His-tagged protein dimer, 2% milk, 200 ng/uL BSA, 50 ng/uL salmon testes DNA, 0.02% TX-100; detection with Alexa 488 anti-His …; high values mean tight binding; most listed sequences are background and not binding sites; double strand, one strand shown.
Sequence of UniProt P61244 (P61244 whole entry): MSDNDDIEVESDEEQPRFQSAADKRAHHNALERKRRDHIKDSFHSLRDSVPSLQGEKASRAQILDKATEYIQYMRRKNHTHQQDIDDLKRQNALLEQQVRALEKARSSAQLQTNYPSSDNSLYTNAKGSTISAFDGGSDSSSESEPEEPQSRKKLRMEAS

Sequence | binding signal (normalized occupancy)
ATAGACAT | 0.0863
AGCATGAG | 0.102
CCGGGTCG | 0.0736
GGTTTTAA | 0.0751
CACCTGGA | 0.0905
AACGATAA | 0.0756
CTTAGCGA | 0.0727
CCTTATTC | 0.075
CAAACCAA | 0.0752
CTTTAAGA | 0.0741
CGTTACAG | 0.0745
TAATCAGA | 0.0774
ACGGTGAG | 0.0742
GACCCACC | 0.0814
GAGGCCCA | 0.0722
ACTCACGG | 0.0724
CGCCAGGC | 0.067
AATTGAGT | 0.0752
CCCTCATC | 0.0827
CTAGATAC | 0.0745
AGGTCGTG | 0.0692
ACTTTACA | 0.0785
CACCGCAC | 0.0783
AGACTTGC | 0.0705
ATAGGATG | 0.0865

Sequence | binding signal (normalized occupancy)
AGAGTCTG | 0.0715
TGGGTACA | 0.0791
AGCTAGTG | 0.0762
CCAGGCCA | 0.0744
AATTGGTA | 0.0766
ACATCGAT | 0.0839
AAGGCTGC | 0.0688
CGCCGACG | 0.0698
CTTTGCTA | 0.0746
AATCCGCC | 0.0726
GGTCTGCA | 0.0768
CGGTTGAC | 0.0696
AATTACGT | 0.0817
ACGCAAAC | 0.0692
ATTGTTTA | 0.0731
AGCTACGA | 0.0723
CCGCTGGC | 0.0712
ATCCCCTC | 0.0758
AACCGGTG | 0.0755
GAACCTTC | 0.0732
GCCATAAC | 0.0784
GATGAAGC | 0.0793
CTCGCATA | 0.0804
AAGGAATG | 0.0735
CATGAAGG | 0.0817

Sequence | binding signal (normalized occupancy)
CTAGCCAG | 0.0691
AATAAATC | 0.0749
AAAAGTCG | 0.0711
GTGAAGAA | 0.0745
ATTAAGGC | 0.0701
CTCACTTA | 0.0764
AGGATATA | 0.0816
CATAAAGA | 0.0756
TTCGAGAA | 0.0808
GACCCCAA | 0.079
GGTAAATA | 0.0782
ACGGCACA | 0.0788
ACTAATCC | 0.0789
CTGCAGAA | 0.0727
CGACACAA | 0.0763
CACCCTCA | 0.0829
GAGTCTGA | 0.0726
ACTGAGTG | 0.0746
GGACAAGA | 0.0714
TAGTATCA | 0.0756
ATCGACAC | 0.0841
GACCCATC | 0.0764
CAAAGTAG | 0.0712
CACTCGGC | 0.0727
CATTTACA | 0.0804

Sequence | binding signal (normalized occupancy)
TCCCTAAA | 0.0748
ACTTGACC | 0.0672
GCGAATAA | 0.0756
CCTTTATC | 0.0707
TCGAGAAA | 0.0822
GGTTGGGA | 0.0718
CGAATAGC | 0.076
AGGACCCG | 0.071
AGATACGG | 0.07
AGCCGCAT | 0.0772
ACGCTCGA | 0.0833
AAGCAAAT | 0.073
ACGTCTCT | 0.0717
AATCGTCC | 0.0712
ATACTCGA | 0.0743
ATATAAAC | 0.0809
AGACAGCA | 0.075
GAGGCCGA | 0.0714
AATCTGGG | 0.0714
ATCGAAGA | 0.0743
AATGCATG | 0.1
AGATCAGC | 0.0721
CTAAGAAC | 0.0757
GGTGCGTA | 0.0772
CTCGACGA | 0.0668

Sequence | binding signal (normalized occupancy)
ACATGCAC | 0.0954
ATTCTTCG | 0.0734
TCCCGCCA | 0.0727
GGCCTAAA | 0.0717
ATCAAATA | 0.0822
ATTGATTC | 0.0703
CTCGAAGC | 0.0669
CGAAGTAG | 0.0648
AGATATAC | 0.0813
AACACTGG | 0.078
CCTGGGAC | 0.0732
AGATTATG | 0.0778
GGCAGATA | 0.0757
TATAGGCA | 0.083
ATAAAACG | 0.079
ACTAAGCG | 0.0688
CCAAAGGG | 0.068
CCATGTAA | 0.0855
CTACGGAC | 0.0717
CGTCAACC | 0.0721
GCATGGGC | 0.0946
ACGACAAA | 0.0746
CCTCGTAC | 0.0715
GAGCGAAA | 0.0677
GATGACAA | 0.0764

Sequence | binding signal (normalized occupancy)
GATATCTA | 0.0825
TCAGTTAA | 0.076
CCTATATC | 0.0766
CTGGCCAG | 0.0682
ATCGATGC | 0.0768
CATCTATC | 0.0808
TCATAAAA | 0.0751
CACGCCAC | 0.0943
GATTTCGA | 0.0737
ATTTTCAG | 0.0739
CGGACGCC | 0.0726
CTGTTCAC | 0.0797
ACAGTCGT | 0.0727
GAGGTCGC | 0.0789
CCTCAAAG | 0.0733
ACAGGGTA | 0.077
CTGGTCAC | 0.0773
ATACGAAT | 0.0777
TGAGCCCA | 0.074
AGCGCGTG | 0.117
GTCCGCTA | 0.0676
CCGGCCAA | 0.0717
ATAACTAG | 0.0817
TACGCCAA | 0.0683
CTCACTCA | 0.0759

Sequence | binding signal (normalized occupancy)
CGCTCTGC | 0.0677
GCCGTTAC | 0.0696
GCCGTTCA | 0.0711
TCACAAAA | 0.0778
AGCGCGGA | 0.074
CCCTTGCG | 0.0718
AATATAAG | 0.0817
CTCACGCC | 0.0879
ATTTCAGA | 0.0733
CCGGTGCC | 0.067
GGGTATAA | 0.0798
CATCGACC | 0.073
ATAGCAAC | 0.0797
AAAAAACC | 0.0778
AATTACGC | 0.082
AGAACTAT | 0.0764
ACCTCAAT | 0.0773
ATTCACAC | 0.0855
TAACGGCA | 0.0754
CTGCTTGA | 0.0719
CTCTAACC | 0.0754
ATGCTTGC | 0.0786
